# Source: ChEMBL document CHEMBL4888484, “Replenishing the malaria drug discovery pipeline: Screening and hit evaluation of the MMV Hit Generation Library 1 (HGL1) against asexual blood stage Plasmodium falciparum ,using a nano luciferase reporter read-out” (2022)
# Among all 150,000 compounds or so, about 540 (0.36%) showed an effect of 50% or more. The list shows a part of the results.
# Tested on: Plasmodium falciparum
# Assay: Primary screen in NF54 nanoGlo assay, in single point, at 2uM, 72h; a lower Z score goes with more inhibition
# Type: functional, Erythrocyte
# Details: timepoint 72 hour
SMILES,% Inhibition,Z score
COCc1cc(N2CCO[C@H](C(F)(F)F)C2)ncn1,-11%,2.19
NC(=O)c1ccc(NC(=O)C2CN(C(=O)c3c[nH]c4ccccc34)C2)cc1,-18%,2.09
COc1ccc([C@H]2NCCc3c2[nH]c2ccc(OCc4ccccc4)cc32)cc1COc1c(C)cccc1C,10%,-1.27
O=C(Nc1ccc(N2CCOCC2)cc1)c1ccc2nc(-c3ccccc3)cn2c1,-7%,1
Cc1noc(C)c1CNC[C@H]1CN(C2CC2)CCO1,-20%,2.48
O=C(NCC1Cc2ccccc21)NC1CCOC(c2ccccc2)C1 (configuration not stated),-11%,0.92
O=C(NC(c1cccc(Cl)c1)C1CCCCC1)C1CCC(C(=O)O)NC1 (configuration not stated),-9%,1.06
Cc1ccc(S(=O)(=O)NCc2nc3cccnc3n2C2CC2)cc1C,3%,-0.58
COCCn1cncc1CN1CC[C@H]1c1cccs1,5%,-0.94
CCOC1CC(NC(=O)NCc2scnc2C)C12CCCC2 (configuration not stated),-9%,0.93
CC(=O)NC[C@H]1COCc2nc3ccc(C)cc3n21,-9%,1.42
COc1cc(C)ccc1Oc1ccc(NC(=O)N2CCC[C@@H]2CCO)cc1F,-1%,0.27
O=C(Nc1ccc(C(F)(F)F)cc1)c1ccc2c(c1)CCCN2S(=O)(=O)c1ccccc1,-4%,0.69
O=C(c1ccc2[nH]c3c(c2c1)CCCC3)N1CCC1,-12%,1.59
Cc1ccc2nsnc2c1NC(=O)N1CCN(CCOCCO)CC1,-5%,0.75
Cc1ccccc1CCNc1cc([C@H]2C[C@H](N)C2)ncn1,-8%,0.83
COc1ccc(-c2cc(C(=O)Nc3nc(C)c(C)s3)nn2[C@H]2CCS(=O)(=O)C2)cc1,-18%,2.08
O=C(NC1CCCCCC1)c1ccc2cnn(Cc3ccc(F)cc3)c2c1,-22%,1.94
CCN(Cc1ccc(C(=O)NCc2ccc3c(c2)OCO3)c(=O)[nH]1)[C@H]1COC[C@@H]1O,-16%,1.87
COc1cc(OC)cc(C(=O)N2CCN([C@H](C(=O)N3CCc4ccccc4C3)C3CCCC3)CC2)c1,9%,-1.55
CC[C@@]1(c2cnn(C)c2)NC(=O)N(Cc2ccc(F)cc2C#N)C1=O,6%,-0.9

SMILES,% Inhibition,Z score
CC1=NN(c2nccc3sccc23)C(=O)[C@H]1C,-6%,1.16
CC(O)C1CCCN(CC(C#N)CCC#N)C1 (configuration not stated),-6%,1.17
CCC(NC(=O)CCc1scnc1C)[C@H]1C[C@H](O)C1 (some centres not stated),0%,-0.03
CCOC(=O)[C@H](Cc1ccccc1)Nc1ncnc2onc(C)c12,3%,-0.57
CCN(Cc1cc(Cl)ccc1OC)c1nc(C)nc2oc(C)nc12,14%,-1.79
O=C(c1ncoc1C1CC1)N1CCc2ccnc(O)c2C1,18%,-2.12
CCCc1ncncc1C(=O)N[C@@H](C)c1nncn1CCC,-6%,0.58
O=C(Nc1nc2ccccc2s1)C(Cc1ccccc1)Cc1ccccc1,12%,-1.53
Cc1cc(NC(=O)[C@H]2CCCN(c3ccnc(-c4cccc(F)c4)n3)C2)ccc1Br,-15%,1.78
CN1CCCc2c(c3cc(F)ccc3n2CCc2ccncc2)C1,0%,0.01
COc1cc(C(=O)NCCNC(=O)c2cc(-c3ccccc3)nc3ccccc23)cc(OC)c1OC,-11%,1.69
Cc1[nH]c(=O)[nH]c(=O)c1CC(=O)N[C@H]1CC(=O)N(C2CCCCCC2)C1,-9%,1.45
Cc1ccc([C@@H](C)CNC(=O)Nc2cc(C3CCC3)nn2C)cc1,1%,-0.16
COCc1nsc(NC(=O)c2ccccn2)n1,6%,-0.54
CN(CCc1nc2ccccc2[nH]1)C(=O)Cn1nnnc1CN1CCCC1,-12%,1.63
Clc1ccc(CCNc2nc(-c3ccccc3)no2)cc1,-3%,0.29
CCN(C[C@H](C)C#N)C(=O)C1CCCC1,-8%,0.77
O=C(Nc1ccccc1CN1CCCCC1)NC1CCOCC1,-4%,0.76
Cc1cnc(C(=O)Nc2nc3c(s2)CCC3)cn1,-17%,1.43
CC(C)C(=O)N1CCC(c2nc(-c3cnsc3)no2)CC1,-1%,0.07
C[C@@H](C(=O)Nc1cc(F)ccc1O)N(C)C,0%,-0.08

SMILES,% Inhibition,Z score
Cc1nc(C(=N)NOC(=O)Cc2ccccc2)no1,-13%,1.79
O=C(COc1ccc(Cl)cc1)Nc1cccc(Cl)c1N1CCCC1,4%,-0.46
CCOc1cccc(-c2ccc3nc(-c4cccc(OC)c4)c(CCC(=O)NCCN4CCCC4)n3c2)c1,59%,-11.14
CCOc1ncccc1CNc1cncc(-n2cccn2)n1,-17%,2.64
CCNC(=O)[C@@]1(OCc2ccc(F)cc2F)CC(OCc2cccc(Cl)c2)[C@@H]2OC(C)(C)O[C@@H]2C1 (some centres not stated),-15%,1.49
CC(=O)c1c(-c2cccc(C(=O)N3CCN(CCO)CC3)c2)cnn1C,3%,-0.6
CC(NC(=O)N[C@H]1CCO[C@@H]1c1cnn(C(C)C)c1)C1CCC(F)CC1 (some centres not stated),-26%,2.38
CCn1cnnc1[C@H]1CCCN(c2c(C(=O)O)cnc3ccccc23)C1,-11%,1.51
CC(C)CN1CCC[C@H]1CNC(C)c1cnn(C)c1 (some centres not stated),-15%,2.06
Cc1cccnc1C(=O)N[C@@H]1CCC[C@@H]1C(=O)N1CCc2ccccc2C1,-6%,0.98
Cn1nccc1C1CC(Nc2nc(C3CCCCC3)ns2)CCO1 (configuration not stated),-11%,1.76
O=C(C[C@H]1CCCCN(Cc2ccccc2)C1=O)NC1CC1,-9%,1.7
CC(C)N1CCC2(CCC(O)CC2)CC1,1%,-0.07
COc1cccc(-c2nc3ccc(-c4cccc(C(F)(F)F)c4)cn3c2CCC(=O)Nc2ccc(C)cc2)c1,-6%,1.08
Cc1ccc(S(=O)(=O)NCc2ccc(N3CCCC3=O)cc2)c(C)c1,1%,-0.18
Cn1cc(-c2cc3n(n2)CCC(=O)N3CC(=O)Nc2ccc(Cl)cc2)c2ccccc21,-10%,1.91
O=C(c1ccc(F)c(F)c1)N1CCN(S(=O)(=O)c2cc3c4c(c2)CCC(=O)N4CCC3)CC1,1%,-0.18
FC(F)(F)c1nc2ccccc2nc1N1CCC2(CC1)OCCO2,-4%,0.82
CCN1CCC2CCC(C1)N2Cc1ncc(C2OCCO2)s1 (configuration not stated),0%,-0.01
COC(=O)c1cc2n(n1)C[C@@](C)(C(=O)NC1CCC(C)CC1)N(Cc1ccccc1OC)C2=O (some centres not stated),16%,-1.87
O=C(NCC1(CO)CC2(CCC2)C1)N[C@H]1CCOC2(CCC2)C1,-9%,1.53

SMILES,% Inhibition,Z score
Nc1ccccc1Nc1nc(C(C(F)(F)F)(C(F)(F)F)C(F)(F)F)nc(C(C(F)(F)F)(C(F)(F)F)C(F)(F)F)n1,-11%,1.69
COc1ccc(S(=O)(=O)N2CCC(n3cnnc3C)CC2)cc1Cl,-11%,1.63
CC(=O)c1sc(NC(=O)Cc2c[nH]c3ccccc23)nc1-c1ccccc1,-2%,0.26
COCCN1CC2(CCC1=O)CCN(C(=O)c1c(C)nn(C)c1C)CC2,-8%,0.78
CC(C)(C)OC(=O)N1CC(CC(=O)Nc2ccc(F)c(Cl)c2)C1,5%,-0.75
C#Cc1cc(F)c(Br)c(F)c1N,0%,0
O=C(NCC1CC12CCCc1ccccc12)NC1CCCNC1=O (configuration not stated),4%,-0.52
CN(C)c1cccc(NC(=O)CC(F)(F)F)n1,24%,-2.76
O=C(NCCc1ccncc1)c1ccc(Br)o1,-11%,1.51
COC(=O)CNC(=O)[C@H]1CC[C@H](Cn2c(=O)[nH]c3ccccc3c2=O)CC1,-12%,1.56
CC(C)(C)CC(=O)N[C@@H]1CC[C@H]2CCOc3ccccc3C(=O)N3CCN(CC4CC4)C[C@H]3C(=O)NC[C@H]1O2,-6%,0.81
O=C(Nc1ccc(NC(=O)C(c2ccccc2)c2ccccc2)cc1)c1ccccc1Cl,-3%,0.42
CC1OC(C)(C)OC1C1CNc2nc(NC(=O)C(C)(C)C)nc(O)c2N1C(=O)c1cccnc1 (configuration not stated),-26%,3.08
CC(C)c1nc2cc(C(=O)N3CCC[C@H](COc4ccccc4F)C3)ccc2o1,-11%,1.58
CCOc1ccc(-c2cc3nc(C4CCN(C(=O)OC(C)(C)C)CC4)c(C(=O)Nc4ccc5c(c4)OCCO5)cn3n2)cc1,-4%,0.65
Cc1cc(COCC(=O)N2CC(C)(C)O[C@@]3(C[C@@H]4CC[C@H]3C4)C2)no1,-20%,2.12
c1ccc2c(c1)CCN(c1nc(-c3c[nH]c4ccccc34)nc3c1CNC3)C2,-10%,1.96
COc1ccc(-c2cc(C(=O)N3CCC[C@H]3c3nc(C4CCOCC4)no3)c(C)n2C)cc1,-9%,1.15
